Laboratory results reported in paper PMC12208539, “PPIL2 is a target of the JAK2/STAT5 pathway and promotes myeloproliferation via degradation of p53” (The Journal of Clinical Investigation, 2025).

Biological target: T1, recombinant GST-PPIL2 (1-520) (UniProt Q13356 1-520)
T1 construct: peptidylprolyl isomerase-like 2 (PPIL2), residues 1-520; also called GST-tagged PPIL2; pGEX6p-3-GST-PPIL2 (1-520); source: recombinant, prokaryotic expression vector pGEX6p-3
T1 sequence (looked up): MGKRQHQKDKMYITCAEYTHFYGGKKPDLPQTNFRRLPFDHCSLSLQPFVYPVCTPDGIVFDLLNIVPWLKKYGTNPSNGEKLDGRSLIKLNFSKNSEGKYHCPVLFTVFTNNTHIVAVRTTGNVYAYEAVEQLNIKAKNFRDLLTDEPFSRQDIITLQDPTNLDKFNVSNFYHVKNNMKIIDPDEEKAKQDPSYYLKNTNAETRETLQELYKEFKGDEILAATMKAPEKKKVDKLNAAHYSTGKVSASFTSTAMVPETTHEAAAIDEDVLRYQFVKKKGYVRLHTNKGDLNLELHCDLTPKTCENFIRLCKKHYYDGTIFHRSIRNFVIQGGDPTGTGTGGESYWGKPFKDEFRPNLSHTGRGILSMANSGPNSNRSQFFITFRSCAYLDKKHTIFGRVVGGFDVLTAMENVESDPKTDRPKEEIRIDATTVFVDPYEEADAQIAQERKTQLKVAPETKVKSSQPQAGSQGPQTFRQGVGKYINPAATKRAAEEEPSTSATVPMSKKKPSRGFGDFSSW
Assay: pull-down; His pulldown: 100 μg His-p53 protein with 100 μg GST-PPIL2 and MagneHis beads overnight at 4°C; washes with TENT buffer (1% Triton X-100, 140 mM NaCl, 2 mM EDTA, 20 mM Tris pH 8.0)
Conditions: both partners purified

- binding result: binds
B1: recombinant His-p53-([…]) (domain or fragment)
chain: not shown
notes: also called pET15b-His-p53 ([…]); source: recombinant, prokaryotic expression vector pET15b
